# In the supplement of paper PMC8728848:
# Some of the results follow.
# How the values were obtained:
# Assay in all cases: glycan array binding signal (z-score within array); higher = stronger binding
# Details in all cases: glycan notation: IUPAC condensed, linker removed
# [1] = molecular target: Gal3S(b1-4)[Fuc(a1-3)]GlcNAc6S
# Summary of the method: (§1)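 Glycan array data came from 3228 arrays in the Consortium for Functional Glycomics database, and only arrays with an available protein sequence were kept. Glycan names were put into IUPAC-condensed notation, and columns mapping to the same glycan were averaged. The binding signal is a within-array Z-score, averaged across arrays of one protein sequence run at different concentrations or buffers and across linkers. A negative Z-score can be read as non-binding.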
# Gal3S4S(b1-4)GlcNAc = molecular target: Gal3S4S(b1-4)GlcNAc
# Summary of the method: as §1
# Gal3S6S(b1-4)GlcNAc = molecular target: Gal3S6S(b1-4)GlcNAc
# Summary of the method: as §1
# Gal3S6S(b1-4)GlcNAc6S = molecular target: Gal3S6S(b1-4)GlcNAc6S
# Summary of the method: as §1
# Gal4S(b1-4)GlcNAc = molecular target: Gal4S(b1-4)GlcNAc
# Summary of the method: as §1
# Gal4S6S(b1-4)GlcNAc = molecular target: Gal4S6S(b1-4)GlcNAc
# Summary of the method: as §1
# Gal6P(b1-4)GlcNAc = molecular target: Gal6P(b1-4)GlcNAc
# Summary of the method: as §1
# Gal6S(b1-3)GlcNAc = molecular target: Gal6S(b1-3)GlcNAc
# Summary of the method: as §1
# Gal6S(b1-3)GlcNAc6S = molecular target: Gal6S(b1-3)GlcNAc6S
# Summary of the method: as §1
# Gal6S(b1-4)Glc = molecular target: Gal6S(b1-4)Glc
# Summary of the method: as §1
# Gal6S(b1-4)Glc6S = molecular target: Gal6S(b1-4)Glc6S
# Summary of the method: as §1
# Gal6S(b1-4)GlcNAc = molecular target: Gal6S(b1-4)GlcNAc
# Summary of the method: as §1
# Gal6S(b1-4)GlcNAc6S = molecular target: Gal6S(b1-4)GlcNAc6S
# Summary of the method: as §1
# GalNAc(a1-3)Gal = molecular target: GalNAc(a1-3)Gal
# Summary of the method: as §1
# GalNAc(a1-3)GalNAc = molecular target: GalNAc(a1-3)GalNAc
# Summary of the method: as §1
# [2] = molecular target: GalNAc(a1-3)GalNAc(a1-3)Gal(a1-4)Gal(b1-4)GlcNAc
# Summary of the method: as §1
# [3] = molecular target: GalNAc(a1-3)GalNAc(b1-3)Gal(a1-4)Gal(b1-4)Glc
# Summary of the method: as §1
# [4] = molecular target: GalNAc(a1-3)GalNAc(b1-3)Gal(a1-4)Gal(b1-4)GlcNAc
# Summary of the method: as §1
# GalNAc(b1-3)Gal = molecular target: GalNAc(b1-3)Gal
# Summary of the method: as §1
# [5] = molecular target: GalNAc(b1-3)Gal(a1-4)Gal(b1-4)GlcNAc
# Summary of the method: as §1
# [6] = molecular target: GalNAc(b1-3)Gal(a1-4)Gal(b1-4)GlcNAc(b1-3)Gal(b1-4)Glc
# Summary of the method: as §1
# [7] = molecular target: GalNAc(b1-3)Gal(a1-6)Gal(b1-4)Glc
# Summary of the method: as §1
# GalNAc(b1-3)GalNAc = molecular target: GalNAc(b1-3)GalNAc
# Summary of the method: as §1
# GalNAc(b1-3)GlcNAc = molecular target: GalNAc(b1-3)GlcNAc
# Summary of the method: as §1
# GalNAc(b1-4)Gal(b1-4)Glc = molecular target: GalNAc(b1-4)Gal(b1-4)Glc
# Summary of the method: as §1
# GalNAc(b1-4)GlcNAc = molecular target: GalNAc(b1-4)GlcNAc
# Summary of the method: as §1
# [8] = molecular target: GalNAc(b1-4)GlcNAc(b1-2)Man
# Summary of the method: as §1
# [9] = molecular target: GalNAc(b1-4)GlcNAc(b1-2)Man(a1-3)[GalNAc(b1-4)GlcNAc(b1-2)Man(a1-6)]Man(b1-4)GlcNAc(b1-4)GlcNAc
# Summary of the method: as §1
# [10] = molecular target: GalNAc(b1-4)GlcNAc(b1-3)GalNAc(b1-4)GlcNAc
# Summary of the method: as §1
# GalNAc(b1-4)GlcNAc6S = molecular target: GalNAc(b1-4)GlcNAc6S
# Summary of the method: as §1
# GalNAc(b1-6)GalNAc = molecular target: GalNAc(b1-6)GalNAc
# Summary of the method: as §1
# GalNAc3S(b1-4)GlcNAc = molecular target: GalNAc3S(b1-4)GlcNAc
# Summary of the method: as §1
# GalNAc3S(b1-4)GlcNAc3S = molecular target: GalNAc3S(b1-4)GlcNAc3S
# Summary of the method: as §1
# [11] = molecular target: GalNAc3S(b1-4)[Fuc(a1-3)]GlcNAc
# Summary of the method: as §1
# GalNAc4S6S(b1-4)GlcNAc = molecular target: GalNAc4S6S(b1-4)GlcNAc
# Summary of the method: as §1
# GalNAc6S(b1-4)GlcNAc = molecular target: GalNAc6S(b1-4)GlcNAc
# Summary of the method: as §1
# Glc(a1-4)Glc = molecular target: Glc(a1-4)Glc
# Summary of the method: as §1
# [12] = molecular target: Glc(a1-4)Glc(a1-4)Glc(a1-4)Glc
# Summary of the method: as §1
binder,measurement,setting,value
PpFlo2 (Pichia pastoris) (protein) MGSSHHHHHHSSGLVPRGSHMDDSGNGDNSDTAYGCDITTNAVDGFDATIYQYNANDLRLIRDPTFMSTGYLGRNVLNKISGVTVPGFNIWNPSSRTATVYGVKNVNYYNMVLELKGYFKADVSGDYKLTLSHIDDSSMLFFGKETAFKCCDAGSIPLNEAPTDYSLFTIKPSNQVNSEVISATQYLEAGKYYPVRIVFVNALERARFDFKLTIPSGAVLDDFQNYIYQFGDLDENSCHE,glycan array binding signal (z-score),[1],-0.274
same,glycan array binding signal (z-score),Gal3S4S(b1-4)GlcNAc,-0.299
same,glycan array binding signal (z-score),Gal3S6S(b1-4)GlcNAc,-0.291
same,glycan array binding signal (z-score),Gal3S6S(b1-4)GlcNAc6S,-0.295
same,glycan array binding signal (z-score),Gal4S(b1-4)GlcNAc,-0.299
same,glycan array binding signal (z-score),Gal4S6S(b1-4)GlcNAc,-0.297
same,glycan array binding signal (z-score),Gal6P(b1-4)GlcNAc,-0.266
same,glycan array binding signal (z-score),Gal6S(b1-3)GlcNAc,-0.292
same,glycan array binding signal (z-score),Gal6S(b1-3)GlcNAc6S,-0.286
same,glycan array binding signal (z-score),Gal6S(b1-4)Glc,-0.298
same,glycan array binding signal (z-score),Gal6S(b1-4)Glc6S,-0.302
same,glycan array binding signal (z-score),Gal6S(b1-4)GlcNAc,-0.295
same,glycan array binding signal (z-score),Gal6S(b1-4)GlcNAc6S,-0.297
same,glycan array binding signal (z-score),GalNAc(a1-3)Gal,-0.299
same,glycan array binding signal (z-score),GalNAc(a1-3)GalNAc,-0.3
same,glycan array binding signal (z-score),[2],-0.348
same,glycan array binding signal (z-score),[3],-0.303
same,glycan array binding signal (z-score),[4],-0.273
same,glycan array binding signal (z-score),GalNAc(b1-3)Gal,-0.291
same,glycan array binding signal (z-score),[5],-0.265
same,glycan array binding signal (z-score),[6],-0.279
same,glycan array binding signal (z-score),[7],-0.302
same,glycan array binding signal (z-score),GalNAc(b1-3)GalNAc,2.23
same,glycan array binding signal (z-score),GalNAc(b1-3)GlcNAc,-0.268
same,glycan array binding signal (z-score),GalNAc(b1-4)Gal(b1-4)Glc,-0.291
same,glycan array binding signal (z-score),GalNAc(b1-4)GlcNAc,-0.128
same,glycan array binding signal (z-score),[8],-0.241
same,glycan array binding signal (z-score),[9],-0.276
same,glycan array binding signal (z-score),[10],-0.221
same,glycan array binding signal (z-score),GalNAc(b1-4)GlcNAc6S,-0.271
same,glycan array binding signal (z-score),GalNAc(b1-6)GalNAc,-0.273
same,glycan array binding signal (z-score),GalNAc3S(b1-4)GlcNAc,-0.275
same,glycan array binding signal (z-score),GalNAc3S(b1-4)GlcNAc3S,-0.273
same,glycan array binding signal (z-score),[11],-0.277
same,glycan array binding signal (z-score),GalNAc4S6S(b1-4)GlcNAc,-0.272
same,glycan array binding signal (z-score),GalNAc6S(b1-4)GlcNAc,-0.276
same,glycan array binding signal (z-score),Glc(a1-4)Glc,-0.297
same,glycan array binding signal (z-score),[12],-0.302
